Experimental data published in patent US20210340207A1 (Merck Sharp & Dohme, published 2021).
Where a chain is given by its changes, count along the chain named. Values belong to the binder of their own block, whether it stands above or below them.

Key:
[1] = molecular target: T1, Human IL-2Rβ (Table 7B) (human, UniProt P14784 27-239, limits assumed); test: SPR (Biacore T200)
T1 sequence (looked up): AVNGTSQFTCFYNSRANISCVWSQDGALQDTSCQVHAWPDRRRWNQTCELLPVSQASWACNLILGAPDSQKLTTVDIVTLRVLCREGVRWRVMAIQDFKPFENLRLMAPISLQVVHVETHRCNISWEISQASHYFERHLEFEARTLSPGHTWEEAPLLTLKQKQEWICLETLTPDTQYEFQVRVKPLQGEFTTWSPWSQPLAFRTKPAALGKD

[2] = molecular target: T2, mouse IL-2Rαβγc (on CTLL2-STAT5 reporter cells) (mouse, UniProt P01590 22-268; P16297 27-539; P34902 23-369); test: cell-based or functional assay
T2 sequence (looked up) 1: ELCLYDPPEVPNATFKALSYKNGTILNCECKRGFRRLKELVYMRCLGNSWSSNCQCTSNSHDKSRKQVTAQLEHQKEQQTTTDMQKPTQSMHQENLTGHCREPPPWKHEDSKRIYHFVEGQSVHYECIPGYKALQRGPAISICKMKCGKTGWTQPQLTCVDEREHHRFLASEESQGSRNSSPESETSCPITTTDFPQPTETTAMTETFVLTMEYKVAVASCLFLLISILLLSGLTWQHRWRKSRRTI
T2 sequence (looked up) 2: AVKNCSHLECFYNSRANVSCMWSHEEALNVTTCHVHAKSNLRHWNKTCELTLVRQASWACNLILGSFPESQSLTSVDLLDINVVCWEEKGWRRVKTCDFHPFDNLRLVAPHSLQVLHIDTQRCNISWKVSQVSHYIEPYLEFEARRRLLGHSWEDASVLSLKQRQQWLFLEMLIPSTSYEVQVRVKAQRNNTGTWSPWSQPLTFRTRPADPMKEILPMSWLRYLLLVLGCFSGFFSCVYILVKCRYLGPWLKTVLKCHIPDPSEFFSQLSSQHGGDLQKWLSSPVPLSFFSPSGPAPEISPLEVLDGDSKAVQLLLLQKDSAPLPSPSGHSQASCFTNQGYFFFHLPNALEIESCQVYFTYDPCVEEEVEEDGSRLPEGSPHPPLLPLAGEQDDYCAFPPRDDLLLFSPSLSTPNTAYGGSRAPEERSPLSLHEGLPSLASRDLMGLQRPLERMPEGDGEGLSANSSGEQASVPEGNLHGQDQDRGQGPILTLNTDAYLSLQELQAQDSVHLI
T2 sequence (looked up) 3: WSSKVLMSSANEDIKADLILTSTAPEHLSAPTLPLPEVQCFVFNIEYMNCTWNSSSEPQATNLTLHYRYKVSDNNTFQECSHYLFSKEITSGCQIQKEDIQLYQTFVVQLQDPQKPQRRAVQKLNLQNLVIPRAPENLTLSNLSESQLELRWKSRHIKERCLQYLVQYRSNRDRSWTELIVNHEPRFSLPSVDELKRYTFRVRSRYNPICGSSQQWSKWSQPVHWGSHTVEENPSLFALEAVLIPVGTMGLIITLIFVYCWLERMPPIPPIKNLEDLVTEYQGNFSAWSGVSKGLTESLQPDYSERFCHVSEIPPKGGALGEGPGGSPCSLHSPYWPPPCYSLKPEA

[3] = molecular target: T3, Human IL-2Rα, Fc tag (Table 10) (human, UniProt P01589 22-213, limits assumed); test: SPR (Biacore T200), receptor captured on anti-hu Fc surface
T3 construct: also called IL-2R alpha Human Fc; not shown: Fc tag
T3 sequence (looked up): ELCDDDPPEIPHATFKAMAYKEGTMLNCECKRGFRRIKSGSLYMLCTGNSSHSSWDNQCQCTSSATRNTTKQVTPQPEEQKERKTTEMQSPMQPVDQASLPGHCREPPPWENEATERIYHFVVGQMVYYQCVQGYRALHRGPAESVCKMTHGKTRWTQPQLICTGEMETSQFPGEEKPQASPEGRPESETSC
Method: (§1) A Surface Plasmon Resonance (SPR) assay on a Biacore T200 (GE Healthcare) instrument was used to determine the monovalent affinities of pegylated aldesleukin variants against polyhistidine-tagged or Fc-tagged IL-2 Receptors. Biacore T200 Evaluation Software was used to fit each titration series to a 1:1 binding model or steady state affinity. The association (kₒₙ, M⁻¹ s⁻¹) and dissociation (koff, s⁻¹) rate constants were determined for each set of titrations and used to calculate the dissociation constant, KD=koff/kₒₙ, of each sample against each receptor. koff/kₒₙ values are not reported herein.
(§2) To measure the affinity of CON1 and aldesleukin for IL-2R subunits, receptors were captured on either an anti-histidine or anti-hu Fc antibody surface. […] CON1 has a six-fold lower affinity for Human and Cynomolgus/Rhesus IL-2-Rβ than aldesleukin.

[4] = molecular target: T4, Cynomolgus IL-2Rα, Fc tag (Table 10) (cynomolgus monkey, UniProt H6WS54 22-213); test: as above
T4 construct: not shown: Fc tag (tag cell printed once at r10)
T4 sequence: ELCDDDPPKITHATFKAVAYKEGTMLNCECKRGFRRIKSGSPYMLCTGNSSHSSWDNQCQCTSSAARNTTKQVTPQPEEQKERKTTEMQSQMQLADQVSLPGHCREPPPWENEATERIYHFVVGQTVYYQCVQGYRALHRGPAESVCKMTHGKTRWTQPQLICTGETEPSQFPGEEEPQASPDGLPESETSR
Method: as §1, §2

[5] = molecular target: T5, Rhesus IL-2Rα, Fc tag (Table 10) (rhesus monkey, UniProt Q5MNY4 22-213, limits assumed); test: as above
T5 construct: not shown: Fc tag (tag cell printed once at r10)
T5 sequence (looked up): T4 sequence with T126M, V146I
Method: as §1, §2

Kd [1]: 1200 nM
koff [1]: 0.31 s⁻¹
kon [1]: 250000 M⁻¹ s⁻¹
STAT5-CTLL2 EC50 [2]: 0.009 nM
STAT5-CTLL2 EC50 Fold Change [2]: 1 fold
B1: Ald-6HIS (ligand)
chain: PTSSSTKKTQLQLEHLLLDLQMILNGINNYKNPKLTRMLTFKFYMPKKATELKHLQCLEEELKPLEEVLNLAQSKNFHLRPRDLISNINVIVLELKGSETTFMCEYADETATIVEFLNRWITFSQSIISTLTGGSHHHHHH
notes: also called aldesleukin with carboxyl-terminus HIS6-tag linked via a Gly-Gly-Ser linker

KD/KD (human) [3]: 1 ratio
Kd [3]: 18 nM
KD/KD (human) [4]: 0.6 ratio
Kd [4]: 12 nM
KD/KD (human) [5]: 0.7 ratio
Kd [5]: 13 nM
B2: Aldesleukin (DesA1_IL-2_C124S) (ligand)
chain: not shown
